# Experimental data taken from PubChem BioAssay AID651820 (National Center for Advancing Translational Sciences (NCATS), 2012).
# Values joined by “and” are separate entries in the source; they are usually repeats but may differ in a detail not shown here. Equal entries are not always repeated. The campaign covered roughly 340,000 compounds. About 12,000 (3.5%) were called active. The inconclusive results got no clear call from the source; some entries with a clear call stand among them for comparison. Calls follow the shape of the dose curve; as a rule, active = well fitted inhibition curve with a large enough effect; inconclusive = small, poorly fitted or top-dose-only effect, or another doubt; inactive = no such curve, though single readings can be large or run the other way. A potency beside an inconclusive call is a rough fit, not a confirmed value.
# Assay: qHTS Assay for Inhibitors of Hepatitis C Virus (HCV)
# Conditions: Huh7.5.1 HCVcc-Cre (HCVcc is cell-culture hepatitis C virus) infection, luciferase reporter, 44 h; series mostly up to 41.8 µM
# Summary of the method: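 HCVcc-Cre virus at an moi near 0.5 was added right after compound to cells cultured 4 h from seeding (1,000 cells/well). Luciferase activity was determined 44 h later, 15 min after substrate addition at RT.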
# Potency is read from the fitted curve at half-maximal effect; tags tell the direction and shape of the fitted curve.
row,SMILES,Potency
1,O=C(Nc1ccc(Cl)cc1)Nc1nc(-c2ccccc2)cs1,"inconclusive: 2 µM [inhibitor, full curve, poor fit]"
2,CN(c1ccccc1)S(=O)(=O)c1cccc(NC(=O)Cc2c(F)cccc2Cl)c1,active: 8.91 µM
3,O=C(CSc1nnc2ccc(-c3cccnc3)nn12)Nc1ccccc1F,inactive
4,Cc1ccc(-n2nnnc2SCC(=O)NCC2(N3CCOCC3)CCCCC2)c(C)c1,"inconclusive: 3.55 µM [inhibitor, partial curve]"
5,COc1ccc(/C=C/c2c([N+](=O)[O-])c(=O)n(C)c(=O)n2C)cc1O,inactive
6,CCC(=O)c1ccc(OCC(=O)Nc2ccc(N3CCCCC3)cc2)cc1,active: 11.2 µM
7,COc1ccc(Cl)cc1NC(=O)CN(C)CC(=O)Nc1cc(OC)c(OC)c(OC)c1,"inconclusive: 7.08 µM [inhibitor, partial curve]"
8,O=C(NCCO)C(=O)Nc1cc2c3c(c1)CCN3C(=O)CC2,inactive
9,COc1cc2c(cc1OC)CN(C(=S)Nc1ccc(OC(F)F)cc1)CC2,"inconclusive: 12.6 µM [inhibitor, single point]"
10,Cc1nc(NC(=O)c2cccnc2)ccc1Br,"inconclusive: 11.2 µM [inhibitor, partial curve]"
11,OC(CNCc1ccco1)Cn1c2ccccc2c2ccccc21 (stereo not given),"inconclusive: 31.6 µM [inhibitor, single point]"
12,O=C(Nc1ccc(F)cc1F)Nc1sccc1-c1nc2ccccc2s1,"inconclusive: 11.2 µM [inhibitor, partial curve]"
13,CCc1nc(Nc2ccccc2F)c2oc3ccccc3c2n1,"inconclusive: 11.2 µM [inhibitor, single point]"
14,O=C(c1ccsc1)N1CCCC(N2CCN(c3cccc(Cl)c3)CC2)C1 (stereo not given),"inconclusive: 31.6 µM [inhibitor, single point]"
15,COc1cc(C(=O)NCCc2ncccc2C)ccc1OC1CCN(C(C)=O)CC1,inactive
16,COc1cc([N+](=O)[O-])cc(/C=N/NC(=O)c2cc(-c3ccccc3)nc3ccccc23)c1O,"inconclusive: 31.6 µM [inhibitor, single point]"
17,OC(COCc1ccco1)CN1CCN(C(c2ccccc2)c2ccccc2)CC1 (stereo not given),"inconclusive: 20 µM [inhibitor, partial curve]"
18,COc1ccccc1OCc1ccc(C(=O)Nc2ccccc2F)cc1,inactive
19,CC(C)CNS(=O)(=O)c1ccc(S(=O)(=O)N2CCCN(Cc3ccccc3)C2)cc1,inactive
20,COc1cc(SC)ccc1C(=O)OCC(=O)NC1CC1,inactive
21,CN(CC(=O)Nc1c(Cl)cccc1Cl)C(=O)C1CSC2(C)CCC(=O)N12 (stereo not given),inactive
22,C=CCn1c(SCc2cc(=O)n3cc(C)ccc3n2)nnc1-c1cccc(C)c1,"inconclusive: 31.6 µM [inhibitor, single point]"
23,Cc1ccc(Cn2ncc3c(N4CCOCC4)ncnc32)cc1,"inconclusive: 31.6 µM [inhibitor, single point]"
24,CCOc1ccc2[nH]c(=O)c(CN(Cc3nnnn3Cc3ccco3)C3CCCCC3)cc2c1,"inactive and inconclusive: 31.6 µM [inhibitor, single point]"

row,SMILES,Potency
1,COc1cccc(Nc2ncccc2C(=O)Nc2ccccc2)c1,"inconclusive: 31.6 µM [inhibitor, single point]"
2,O=[N+]([O-])c1ccccc1Nc1ccccc1,inactive
3,Cc1ccc(-c2nnc(OCC3CCCO3)c3ccccc23)cc1 (stereo not given),"inconclusive: 1.12 µM [inhibitor, partial curve]"
4,Cc1nn(-c2ccccn2)c2c1-c1nc(N3CCOCC3)ncc1CC2,inactive
5,COc1ccc(CCC(=O)Nc2ccc(C)c(S(=O)(=O)N(C)C)c2)cc1OC,"inconclusive: 7.08 µM [inhibitor, partial curve]"
6,N#Cc1ccccc1Cn1cc(/C=C/[N+](=O)[O-])c2ccccc21,"inconclusive: 31.6 µM [inhibitor, single point]"
7,CCCC[n+]1ccn(C2=C([O-])c3ccccc3C(=O)/C2=N\S(=O)(=O)c2ccc(Cl)cc2)c1,"inconclusive: 14.1 µM [inhibitor, single point]"
8,COCCn1cc(C(=S)N2CCOCC2)c2ccccc21,inactive
9,COc1ccc(C2=NOC(Cn3nc(-c4ccccc4)cc3C(=O)NCc3cccc(Br)c3)C2)cc1 (stereo not given),"inconclusive: 3.98 µM [inhibitor, full curve]"
10,O=C(O)CSc1ccc(NC(=O)Nc2ccccc2F)cc1,inactive
11,Cc1cccc(C)c1NC(=O)c1sccc1SCc1cccc(C(F)(F)F)c1,inactive
12,O=C(O)CC1c2ccccc2S(=O)(=O)N1Cc1ccccc1 (stereo not given),"inconclusive: 5.62 µM [inhibitor, single point]"
13,Cc1cc(C)n(-c2ccc(Cl)c(C(=O)NCc3ccccc3)n2)n1,inactive
14,O=c1c(Cc2ccccc2)c(O)ccn1Cc1ccco1,"inconclusive: 31.6 µM [inhibitor, single point]"
15,CCCCCC(=O)Nc1cccc(C2=NOC3(C2)C[C@H](C(N)=O)N(C(=O)c2ccccc2C(=O)c2ccccc2)C3)c1 (stereo not given in full),"inconclusive: 8.91 µM [inhibitor, partial curve]"
16,COc1ccc(C(=O)CN2CCN(CCN3C(=O)c4cccc5cccc(c45)C3=O)CC2)cc1,active: 10 µM
17,Cc1ccc2nc3c(cc2c1)c(NC(=O)c1cccnc1)nn3C,"inconclusive: 10 µM [inhibitor, partial curve]"
18,COc1ccc(N2CC(O)=C(c3nc(-c4ccc(F)cc4)cs3)C2=N)cc1OC,"inconclusive: 31.6 µM [inhibitor, single point]"
19,C[C@@H]1COC(=O)[C@H](NC(=O)OCC2c3ccccc3-c3ccccc32)C/C=C\C[C@@H](CC(=O)N[C@H](CO)Cc2ccccc2)C(=O)N1,"inconclusive: 10 µM [inhibitor, partial curve]"
20,CCSc1ccc2nnc(-c3cccc(F)c3)n2n1,"inconclusive: 31.6 µM [inhibitor, single point]"
21,O=C(NNc1c(Cl)cccc1Cl)c1c(F)cccc1Cl,inactive
22,COC(=O)C1=C(c2cc3ccccc3s2)C[C@@H]2CC[C@H]1N2C(=O)NC1CC1,"inconclusive: 28.2 µM [inhibitor, single point]"
23,COC(=O)C1=C(c2ccc(OC(F)(F)F)cc2)C[C@@H]2CC[C@H]1N2C(=O)N1CCC(C)CC1,"inconclusive: 12.6 µM [inhibitor, partial curve]"
24,CC(C)(C)OC(=O)C[C@H]1C/C=C\C[C@@H](CC(=O)N[C@@H](CO)Cc2ccccc2)C(=O)N2CCC[C@@H]2COC1=O,inactive

row,SMILES,Potency
1,CCOc1ccc(/C=N/Nc2nc(=O)[nH]nc2C)cc1OC,inactive
2,COc1ccc(NC(=O)CN2C(=O)NC(C)(C3CC3)C2=O)cc1S(=O)(=O)N1CCCCC1 (stereo not given),"inconclusive: 1.58 µM [inhibitor, partial curve]"
3,CCOC(=O)c1c(C)noc1-c1ccc(Br)o1,"inconclusive: 11.2 µM [inhibitor, partial curve]"
4,COc1nc(N(c2ccccc2)c2ccccc2)nc(-n2ccnc2)n1,"inconclusive: 7.94 µM [inhibitor, partial curve]"
5,Cc1ccc(NC(=O)CSc2nnc(-c3ccco3)c(-c3ccco3)n2)cc1,"inconclusive: 5.01 µM [inhibitor, full curve, poor fit]"
6,CCOc1cc(/C=C2\SC(N)=NC2=O)ccc1O,inactive
7,CCCCCN(C(=O)CCC(=O)OCC(=O)N(CC)c1ccccc1)c1c(N)n(CCCC)c(=O)[nH]c1=O,"inconclusive: 3.16 µM [inhibitor, full curve, poor fit]"
8,C=C(C)Cn1c(=O)c2c(nc3n2CCN3c2cccc(Cl)c2C)n(C)c1=O,"inconclusive: 7.08 µM [inhibitor, single point]"
9,COc1ccc(OC)c(NC(=O)CSc2ncccn2)c1,inactive
10,Cc1ccc(OCC(=O)Nc2ccc3c(c2)OCO3)c([N+](=O)[O-])n1,inactive
11,CCOC(=O)c1c(CN2CCN(Cc3ccccc3)CC2)n(C)c2cc(Br)c(OC)cc12,"inconclusive: 3.16 µM [inhibitor, single point]"
12,C=C1CC2C3CC[C@@]4(OCOC45COCO5)[C@@]3(C)C(O)CC2[C@@]2(C)CCC(=O)C=C12 (stereo not given in full),"inconclusive: 31.6 µM [inhibitor, single point]"
13,CCOC(=O)C1=NNC(C(=O)O)C1c1ccccc1 (stereo not given),inactive
14,CCOc1nc(NCCc2ccc(OC)c(OC)c2)nc(NC(C)(C)CO)n1,"inconclusive: 20 µM [inhibitor, partial curve, poor fit]"
15,Cc1cccc(C)c1NC(=O)c1cn(-c2ccccc2)nc1-c1ccccc1,"inconclusive: 10 µM [inhibitor, single point]"
16,CCn1ccnc1C(O)c1ccc(N(C)C)cc1 (stereo not given),inactive
17,CCCCn1cnc2c(cnn2-c2ccc(F)cc2)c1=O,"inconclusive: 31.6 µM [inhibitor, single point]"
18,c1ccc(-c2ccccc2OCCOCCN2CCc3ccccc3C2)cc1,"inconclusive: 11.2 µM [inhibitor, single point]"
19,O=C(CSc1nnnn1-c1cccc2c1CCCC2)NC1CCCC1,"inconclusive: 1.26 µM [inhibitor, full curve]"
20,CCOc1ccc(N2C(=O)C(Cl)=C(Nc3ccccc3O)C2=O)cc1,inactive
21,Cc1cn2c(nc1=O)OC1C(O)C(COC(=O)c3ccccc3)OC12 (stereo not given),inactive
22,O=[N+]([O-])c1ccc(N(CC(O)CN2CCCCC2)S(=O)(=O)c2ccccc2)cc1 (stereo not given),"inconclusive: 3.98 µM [inhibitor, single point]"
